Test results: the supplement of paper PMC3334620
Over roughly 33,000 sequences, “E-score (-0.5 to 0.5)” has its median near -0.053; the highest 2% begin near 0.37. The list shows a part of the results.

Target: Hap1 (UniProt P0CE41)
Test: PBM E-score (8-mer binding enrichment) (E-score (-0.5 to 0.5)); higher = stronger / more preferred TF binding; most listed sequences are background and not binding sites
Conditions: protein concentration: 200 nM; construct: GST-DNA-binding domain
Protocol: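 Universal 'all 10-mer' protein binding microarrays (Agilent AMADID 015681) probed with GST-tagged S. cerevisiae TFs (full-length or DBD) made by in vitro transcription/translation (PURExpress), about 100-200 nM. Bound TF was detected with fluorescent anti-GST. Each ungapped 8-mer (which stands for itself and its reverse complement) is scored by the PBM enrichment score (E-score), a modified Wilcoxon-Mann-Whitney statistic from -0.5 to +0.5, computed with the Universal PBM Analysis Suite. Scale: above 0.35 generally sequence-specific binding.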

Chain of UniProt P0CE41 (P0CE41 whole entry): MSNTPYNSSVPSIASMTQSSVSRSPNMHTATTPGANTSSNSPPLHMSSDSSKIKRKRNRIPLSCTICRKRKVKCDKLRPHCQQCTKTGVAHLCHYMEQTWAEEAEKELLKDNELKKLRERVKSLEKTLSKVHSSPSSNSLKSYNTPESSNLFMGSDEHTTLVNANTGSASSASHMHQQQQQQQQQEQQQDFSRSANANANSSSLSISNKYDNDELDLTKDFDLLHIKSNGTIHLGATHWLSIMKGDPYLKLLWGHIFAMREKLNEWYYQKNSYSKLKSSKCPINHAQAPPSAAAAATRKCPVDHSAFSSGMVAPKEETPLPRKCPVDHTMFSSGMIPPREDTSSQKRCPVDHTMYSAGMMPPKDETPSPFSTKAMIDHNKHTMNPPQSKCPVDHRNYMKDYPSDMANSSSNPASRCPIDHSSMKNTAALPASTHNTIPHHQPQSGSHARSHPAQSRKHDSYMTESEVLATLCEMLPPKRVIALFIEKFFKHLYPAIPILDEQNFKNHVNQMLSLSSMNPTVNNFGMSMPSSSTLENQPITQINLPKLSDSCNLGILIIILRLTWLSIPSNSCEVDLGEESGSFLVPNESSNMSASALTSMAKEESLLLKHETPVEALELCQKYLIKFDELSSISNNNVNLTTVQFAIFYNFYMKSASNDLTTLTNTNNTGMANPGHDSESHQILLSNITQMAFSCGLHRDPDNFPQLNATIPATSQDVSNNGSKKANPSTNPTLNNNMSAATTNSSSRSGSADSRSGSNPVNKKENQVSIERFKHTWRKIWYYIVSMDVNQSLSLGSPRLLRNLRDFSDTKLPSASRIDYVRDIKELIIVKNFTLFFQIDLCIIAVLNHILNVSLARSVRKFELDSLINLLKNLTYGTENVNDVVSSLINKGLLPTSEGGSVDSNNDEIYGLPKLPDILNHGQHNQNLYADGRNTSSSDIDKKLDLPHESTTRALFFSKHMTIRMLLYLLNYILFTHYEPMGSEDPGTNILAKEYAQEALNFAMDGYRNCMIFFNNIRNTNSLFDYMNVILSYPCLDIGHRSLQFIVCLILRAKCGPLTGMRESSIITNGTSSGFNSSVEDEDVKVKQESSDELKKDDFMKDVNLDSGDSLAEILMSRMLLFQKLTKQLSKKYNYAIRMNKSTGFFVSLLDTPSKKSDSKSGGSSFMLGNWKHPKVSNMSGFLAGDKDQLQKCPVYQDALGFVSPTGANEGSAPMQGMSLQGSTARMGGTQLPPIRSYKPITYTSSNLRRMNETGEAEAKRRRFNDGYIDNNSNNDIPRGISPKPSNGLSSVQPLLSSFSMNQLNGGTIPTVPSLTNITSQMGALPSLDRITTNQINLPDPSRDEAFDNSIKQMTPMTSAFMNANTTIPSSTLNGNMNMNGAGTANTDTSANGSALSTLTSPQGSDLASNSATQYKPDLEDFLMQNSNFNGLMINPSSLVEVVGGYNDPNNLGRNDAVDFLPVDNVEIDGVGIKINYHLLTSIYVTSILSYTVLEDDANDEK

| Sequence | PBM E-score |
| --- | --- |
| CCCCCTTC | -0.186 |
| CAACATTC | -0.146 |
| TGCCACAA | -0.236 |
| CGTTACGC | -0.00422 |
| CTAAAAGC | 0.0727 |
| CCCAGGCG | -0.125 |
| CTCTTCTC | -0.103 |
| CATTCACA | -0.223 |
| ACTTGCTC | -0.2 |
| ACCATAAT | 0.00445 |
| CATGTTTA | -0.0786 |
| CATGTGGG | -0.119 |
| AACGGTTC | 0.0606 |
| CACAGTGA | -0.266 |
| ACCTGTTC | -0.142 |
| AAAGACAA | -0.0535 |
| CCGGCAAA | 0.387 |
| GTAATAAA | 0.108 |
| AGCACAAT | -0.205 |
| ACACCATC | -0.317 |
| GTCAGTTA | -0.131 |
| ACCGACGT | 0.185 |
| ATCTACTG | -0.17 |
| GCACGTTA | -0.0602 |
| AAGATTGG | -0.113 |

| Sequence | PBM E-score |
| --- | --- |
| GGCACGAC | -0.152 |
| AAATTCTG | -0.0955 |
| CAACTTCC | 0.0904 |
| ACCTAGTG | -0.152 |
| AGAGACTA | 0.0586 |
| CACAGCTC | -0.235 |
| GCGCCATA | -0.00075 |
| AGTTTGCA | -0.2 |
| AAATGCAG | -0.165 |
| TCAGGGAA | -0.145 |
| TCTTGCCA | -0.195 |
| CGTCGTAA | -0.158 |
| CACAGATC | -0.0863 |
| AATGGGTC | -0.019 |
| CCGATCCC | 0.285 |
| CAGCATCG | -0.168 |
| AGGGATTC | -0.141 |
| CGCTGGCA | -0.0955 |
| CCATATGC | 0.0891 |
| CCTATTAG | -0.0974 |
| CCCCATAA | -0.0249 |
| GAAATGAC | 0.0272 |
| AATTTTGC | -0.126 |
| AAGCCCTG | -0.185 |
| AATATGCG | 0.0556 |

| Sequence | PBM E-score |
| --- | --- |
| GCAGGACC | -0.0483 |
| CCACTATA | -0.102 |
| GTTTCCGA | 0.379 |
| GCCGGAGC | 0.344 |
| CCCATTCG | 0.0597 |
| TAGAAATA | -0.00987 |
| AGTGAACA | -0.165 |
| TGGTCGAA | -0.32 |
| GATTTGTA | -0.0917 |
| GTTGTTGA | -0.253 |
| CGCTTTAG | 0.0453 |
| AGAATGCC | -0.167 |
| GGAACTGA | 0.164 |
| ACGGATAG | 0.11 |
| ACGGCCGA | 0.419 |
| CAGCGTCG | 0.00157 |
| ATGTAAGG | -0.155 |
| CCAGAGCC | -0.211 |
| GACTAATA | -0.0323 |
| CGCTTCTC | 0.0163 |
| GATCTATA | -0.00468 |
| ACCTGTCC | 0.0413 |
| CTGGCCAC | -0.21 |
| CAAACCCG | 0.356 |
| AGTTAGCC | 0.0194 |

| Sequence | PBM E-score |
| --- | --- |
| GCCATCGA | 0.0856 |
| CAGGAGGC | -0.0654 |
| CACGAGGC | -0.0553 |
| CGGCAAAA | 0.127 |
| CGGTCGTA | 0.383 |
| GCAAAAGC | 0.00761 |
| GGGGTCCA | -0.0995 |
| ACGAGGCA | -0.246 |
| CAAGGTAG | -0.102 |
| ATCTAAAT | 0.149 |
| CTTCGGTC | 0.284 |
| CTTTCGCA | -0.158 |
| AACTAAAC | 0.00956 |
| CGCCGGAG | 0.399 |
| CCATAGTA | -0.0347 |
| AGTGAACG | -0.17 |
| CTGCTACC | -0.239 |
| ATCGTGAC | -0.0933 |
| CAATTACC | 0.117 |
| GCTTAGTA | -0.191 |
| ATTCTCGA | -0.129 |
| ATTTTATC | 0.189 |
| AGAGGCCC | -0.182 |
| AGCGATTC | 0.061 |
| GCCAACCC | -0.0872 |

| Sequence | PBM E-score |
| --- | --- |
| GAGGTTAA | 0.0192 |
| ACTCCTTG | 0.034 |
| AAATACGA | -0.0883 |
| ACGCTACC | -0.0808 |
| CTTACGCC | 0.15 |
| ATCGGGTA | 0.283 |
| TACATCGA | -0.0967 |
| CCAGTTCG | 0.0694 |
| AGGAATCC | -0.0692 |
| GTACCAAC | 0.0726 |
| ATCGAAAC | 0.067 |
| GCCTAAAA | -0.205 |
| CCTGCGCA | -0.126 |
| CAGGCCCA | -0.241 |
| ACGCTGAC | -0.115 |
| CCGTCCTA | -0.104 |
| ACAGCTAT | -0.198 |
| CAGTGACG | 0.00406 |
| GCTGTTAA | 0.109 |
| ACGCGTTG | 0.0771 |
| CGTGTGAG | -0.172 |
| CATCGACC | -0.00088 |
| GAATGATA | 0.116 |
| AAAACTCA | 0.0194 |
| ACGGCACT | 0.195 |

| Sequence | PBM E-score |
| --- | --- |
| AAGCAATT | -0.0596 |
| AGATGTGA | -0.0854 |
| TATGAAGA | -0.111 |
| GCATTTTA | 0.17 |
| AATCTAGC | -0.122 |
| GCATCAGC | -0.0939 |
| TCCCAAAA | -0.0766 |
| TAGCATCA | -0.0893 |
| CTCCGTTC | 0.301 |
| CACAGACC | 0.0985 |
| CAAGCAGG | -0.0653 |
| AGCAACTC | -0.0962 |
| CGTCTCGC | 0.0261 |
| ACGGCCAA | 0.166 |
| AATCTGAA | -0.0832 |
| ATCTCTAA | 0.0904 |
| CCTTACGA | -0.162 |
| TCATAACA | -0.107 |
| ATTTATCC | 0.172 |
| TAAAATTA | -0.0441 |
| AGAACCCG | 0.128 |
| CACATAGA | -0.168 |
| ACAGATCA | -0.0146 |
| GGCGTGGA | -0.0379 |
| GAAATTAA | 0.0698 |

| Sequence | PBM E-score |
| --- | --- |
| CACTCTCA | -0.305 |
| AGACAGGC | -0.0669 |
| AAGGTCCT | -0.155 |
| ATACACGA | -0.184 |
| CATACATA | -0.0798 |
| AATCGAGT | -0.14 |
| AATAACGA | 0.0252 |
| CGATACCC | 0.205 |
| AGTGTTCG | 0.0985 |
| CCACCACC | 0.0435 |
| AATTGAAT | -0.0703 |
| CTACCACC | -0.0602 |
| GTGACCCA | -0.178 |
| CGTGCACG | 0.122 |
| ATCCGCGG | 0.32 |
| CGACCACC | 0.169 |
| GATGTTTA | -0.122 |
| ATAATAGA | -0.0573 |
| ACTGGTCG | -0.0744 |
| GACAGCAA | -0.221 |
| CGGTAAAG | 0.275 |
| CTGGACCC | -0.106 |
